# Out of some 310,000 compounds screened, about 11,000 (3.5%) were called active. Inconclusive results, whose numbers are uncertain, are shown with a selection of clear calls. Calls come from the whole dose curve; as a rule, active = well fitted inhibition curve with a large enough effect; inconclusive = small, poorly fitted or top-dose-only effect, or effect the other way; inactive = flat fitted curve, though single readings scatter. No potency is given beside an inconclusive call; the fits are too rough.
# Assay: VP16 counterscreen qHTS for inhibitors of ROR gamma transcriptional activity;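 note: Gal4-VP16 expression switched on by copper sulfate through the metallothionein promoter; nearly all actives have a fitted effect of over 50% in size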
# Details: Drosophila S2 Gal4-VP16 UAS-luciferase, luminescence, 20 h; activity, negative = inhibition: at 53.6 µM (top of the series)
# % is set by controls: 0 for no effect and ±100 for the full control effect; potency is the fitted concentration of half-maximal effect; tags give direction and shape of the fitted curve.
SMILES,Potency,"activity, negative = inhibition"
CCC(Sc1nc(C)cc(C)n1)C(=O)Nc1nccs1 (stereo not drawn),"inconclusive [inhibitor, single point]",
Clc1ccc(-c2noc(CSc3nnc(-c4ccncc4)n3-c3ccccc3)n2)cc1,"inconclusive [inhibitor, single point]",
CCC(=O)n1nc(-c2ccco2)nc1SCc1ccccc1,"inconclusive [activator, partial curve, poor fit]",
OC(COc1ccc(CN2CCCCO2)cc1)CN1CCCCC1 (stereo not drawn),,inactive: -3.41%
COc1ccc(S(=O)(=O)N2CCC(C(=O)NCCC(=O)Nc3cccc(Cl)c3)CC2)cc1,,inactive: -7.11%
O=[N+]([O-])c1cccc(-c2n[nH]c(=S)n2Cc2ccccc2)c1,"inconclusive [inhibitor, single point]",
Cc1ccc(S(=O)(=O)c2nnn(-c3cccc(F)c3)c2N)cc1,"inconclusive [inhibitor, single point]",
COc1ccc(N2CC(=O)N(c3ccccc3)C2=S)cc1,"inconclusive [activator, partial curve]",
COC(=O)c1cnn(C(=O)c2ccccc2Br)c1N,,inactive: 13.9%
O=C(OCC(=O)N1CCN(C(=O)c2ccco2)CC1)c1cccc(O)c1,,inactive: -0.905%
CN(C)N1C(N)=C(C#N)C(c2cccc3ccccc23)C2=C1CC(c1ccccc1)CC2=O (stereo not drawn),,inactive: 3.81%
O=c1oc2ccccc2c(O)c1Cc1cc(Cl)c2cccnc2c1O,active: 1.12 µM,
O=C(NCCC1=CCCCC1)c1ccc([N+](=O)[O-])cc1,"inconclusive [inhibitor, single point]",
CC(C)c1ccc(/C=C2\SC(=O)N(CC(=O)NC3CCS(=O)(=O)C3)C2=O)cc1 (stereo not drawn),active: 7.08 µM,
Cc1ccc(NC(=S)N/N=C/c2ccc(OCCC(C)C)cc2)c(C)c1,active: 3.16 µM,
COc1ccc(-c2nnc(SCC(=O)c3ccc(O)cc3O)o2)cc1,"inconclusive [inhibitor, partial curve]",
Cc1ccc(C(c2c(C)n(C)n(-c3ccccc3)c2=O)c2c(C)n(C)n(-c3ccccc3)c2=O)s1,active: 7.08 µM,
O=C(Nc1ncc(Cc2cccc(Cl)c2)s1)c1ccc([N+](=O)[O-])cc1,active: 2.82 µM,
O=C(/C=C/c1ccccc1O)c1ccc(Cl)cc1,"inconclusive [inhibitor, single point]",
O=C(N/N=C/c1ccco1)c1cc(-c2cccc(Br)c2)nc2ccccc12,active: 5.62 µM,
CN(C)c1ccc(NC(=S)c2ccccn2)cc1,active: 0.631 µM,
CC1CCCN(c2ccc(C(=O)Nc3nnc(C4CC4)s3)cc2[N+](=O)[O-])C1 (stereo not drawn),"inconclusive [inhibitor, single point]",
CC(=O)Nc1cccc(C(=O)OC(C(=O)c2ccc(C)c(C)c2)c2ccccc2)c1 (stereo not drawn),"inconclusive [inhibitor, single point]",
O=C1c2ccccc2C(=O)N1CCn1c(=O)oc2ccccc21,"inconclusive [activator, single point]",
COc1ccc(NS(=O)(=O)c2cc(NC(=O)c3ccc(C)o3)ccc2N2CCCCC2)cc1,active: 4.47 µM,

SMILES,Potency,"activity, negative = inhibition"
O=C(Nc1ccc(O)c(C(=O)O)c1)c1cccc(NC(=O)c2ccco2)c1,"inconclusive [inhibitor, partial curve]",
Cc1ccc(O)c(NC(=O)c2cc([N+](=O)[O-])ccc2Cl)c1,"inconclusive [inhibitor, single point]",
Cn1c(CCCOc2ccc(Cl)cc2Cl)nnc1SCC(=O)Nc1cccc(F)c1,"inconclusive [inhibitor, single point]",
CN(Cc1ccccc1)C(=O)CSc1nc2ccccc2c(=O)n1Cc1ccco1,"inconclusive [inhibitor, single point]",
O=[N+]([O-])c1cccc(/C=N/n2c(C3CCCCC3)n[nH]c2=S)c1,active: 4.47 µM,
N#Cc1ccc(NC(=O)CNc2cc(S(=O)(=O)N3CCOCC3)ccc2NCC2CCCO2)cc1 (stereo not drawn),,inactive: -3.51%
Cc1ccc(C(c2cc(Cl)c3cccnc3c2O)N2CCN(C)CC2)cc1 (stereo not drawn),active: 0.708 µM,
CN(C)c1ccc(/C=N/n2cnn(Cc3ccccc3Cl)c2=S)cc1,"inconclusive [inhibitor, single point]",
COc1ccc(NC(=S)NC(=O)/C=C/c2ccco2)c(OC)c1,active: 12.6 µM,
Cc1ccc(C(C)C)c(OCc2ccc(-c3nnco3)cc2)c1,"inconclusive [inhibitor, partial curve]",
COC(=O)c1sc(NC(=O)c2cc3c(s2)CCCC3)nc1C,"inconclusive [inhibitor, partial curve]",
COc1ccccc1C(=O)Nc1cc(C)on1,"inconclusive [activator, single point]",
O=C(COC(=O)c1cc(-c2cccs2)nc2ccccc12)NCc1ccco1,"inconclusive [inhibitor, partial curve, poor fit]",
Cn1c(=O)c(C(=S)NC(=O)C2CC2)c(N)n(Cc2ccccc2)c1=O,active: 1 µM,
Cc1ccccc1OCC(=O)N/N=C/c1ccncc1,"inconclusive [activator, single point]",
c1ccc(NC2=NCCN2CC2CCCC2)cc1,,inactive: -2.91%
Cc1ccnc(NC(=O)c2cnc(Cl)c(Cl)c2)c1,"inconclusive [activator, single point]",
Cc1ccn2cc(C(=O)Nc3nnc(C)s3)nc2c1,,inactive: 5.22%
CC1Cc2ccccc2N1c1ncnc(N)c1[N+](=O)[O-] (stereo not drawn),"inconclusive [inhibitor, partial curve]",
O=[N+]([O-])c1ccc(Cl)c(/C=N/NC(=S)Nc2ccccc2)c1,active: 2.24 µM,
CC(=O)Nc1cccc(C(=O)/C=C/c2ccc(Br)cc2)c1,"inconclusive [inhibitor, single point]",
O=C(NNC(=O)c1cccs1)c1cccnc1,,inactive: -10.7%
COc1ccc(N2CCN(Cc3cc(=O)oc4cc(-c5ccccc5)c(O)cc34)CC2)cc1,"inconclusive [inhibitor, full curve, poor fit]",
CN1CCN(C(=O)/C=C/c2ccc([N+](=O)[O-])o2)CC1,"inconclusive [inhibitor, single point]",
COc1ccc(Nc2oc(COc3cccc(C)c3)nc2C#N)cc1,"inconclusive [inhibitor, single point]",

SMILES,Potency,"activity, negative = inhibition"
CCOC(=O)c1c(C)oc2cc(Cl)c(O)c(CN(C)C)c12,,inactive: -10.6%
O=C1NCCCC2c3cc(O)c4ccccc4c3OC12N1CCCCC1 (stereo not drawn),"inconclusive [inhibitor, single point]",
O=C(Nc1cccc(NC(=O)c2ccccc2Cl)c1)c1ccc([N+](=O)[O-])o1,"inconclusive [inhibitor, single point]",
COC(=O)C1=C(C)OC(N)=C(C#N)C1c1cc(OC)ccc1OC (stereo not drawn),"inconclusive [inhibitor, single point]",
CCN(CC(=O)N(CC(C)C)c1c(N)n(CC(C)C)c(=O)[nH]c1=O)Cc1nc2ccccc2c(=O)[nH]1,"inconclusive [inhibitor, single point]",
Clc1ccc(CSc2nnc(Cn3cnc4ccccc43)o2)cc1,active: 15.8 µM,
CCOC(=O)C1=C(N)n2c(s/c(=C\c3ccncc3)c2=O)=C(C(=O)OCC)C1c1ccncc1 (stereo not drawn),"inconclusive [inhibitor, full curve]",
Cc1ccc(N/N=C/c2cccnc2)cc1,,inactive: 5.67%
COc1cc(C(=O)OC(C)C(=O)Nc2ccc3c(c2)OCO3)ccc1OCc1c(C)noc1C (stereo not drawn),,inactive: 2.75%
OC1CCCCC1Sc1nc2ccccc2s1 (stereo not drawn),"inconclusive [activator, partial curve]",
CCn1c(SCc2ccc(OC)cc2)nnc1-c1ccncc1,,inactive: 15%
O=C(CC(=O)N/N=C/c1ccccc1O)NCc1cccnc1,"inconclusive [inhibitor, single point]",
O=C(NCc1ccccc1)c1n[nH]nc1-c1ccccc1O,,inactive: 4.59%
Cc1cccc(N=C2NN=C(c3c(C)[nH]c4ccccc34)CS2)c1,"inconclusive [inhibitor, single point]",
Cc1ccc(-n2c(C)cc(C(=O)CN3C(=O)C(=O)N(C4CCCC4)C3=O)c2C)cc1,"inconclusive [inhibitor, partial curve]",
COc1ccc(OCc2n[nH]c(=S)n2-c2ccc(C)cc2)cc1,"inconclusive [inhibitor, partial curve]",
CN(Cc1cccs1)c1ncnc2sccc12,active: 1.26 µM,
Cc1cc(C)c2nc(NNC(=O)c3ccc(S(=O)(=O)N4CC(C)CC(C)C4)cc3)sc2c1 (stereo not drawn),active: 7.94 µM,
Cc1cc2cc(C=O)c(Cl)nc2cc1C,,inactive: -8.44%
CCC(=O)c1ccc(OCC(O)CN(CCc2ccccc2)Cc2ccccc2)cc1 (stereo not drawn),"inconclusive [inhibitor, single point]",
CN1CCN(CC(=O)N2CCn3c4c(c5cc(C6CCCCC6)ccc53)CCCC42)CC1 (stereo not drawn),"inconclusive [inhibitor, single point]",
CCOC(=O)C1CCCN(C(=O)c2ccc(Cl)c(S(=O)(=O)N3CCCCCC3)c2)C1 (stereo not drawn),"inconclusive [activator, single point]",
CC1=NN(C(=O)c2ccccc2Cl)C(O)(c2cccnc2)C1 (stereo not drawn),"inconclusive [inhibitor, single point]",

# From PubChem BioAssay AID2546 (National Center for Advancing Translational Sciences (NCATS), 2010)
